The values below come from PMC10668032.

This is one part of the list. At the low end of the ranking the order means little.

This assay concerns the target SIX1-Q177R homeodomain (UniProt Q15475). Nature of the assay: universal protein binding microarray. Particulars: Universal all-10-mer PBM (8x60K, AMADID 030236), 300 nM GST-tagged protein, Alexa Fluor 488 anti-GST; buffer, salt, pH and temperature not stated; high values mean tight binding; most listed sequences are background and not binding sites; double strand, one strand shown.
For GCTTCGTA, the binding signal is -0.154 E-score.
For AGGAGGCA the value was -0.176 E-score; for GGTTTAGA, 0.0315 E-score.
Consider ACTGGGAA, for which the binding signal stood at 0.12 E-score.
As for ACGTGTGC, the figure is 0.16 E-score.
For ATCTGAAT, the binding signal was 0.0168 E-score.
For the sequence ACGAGGAT, the binding signal was -0.0644 E-score.
For ATTCGAAT the value was -0.362 E-score.
As for CTAGCAGA, the binding signal was -0.196 E-score.
As for GGGACTAC, the binding signal is -0.15 E-score.
For the sequence AGTTTCTA, the binding signal is -0.257 E-score.
On to CTTAGTAC, for which the binding signal worked out at 0.0868 E-score.
For AATAACTA the value was -0.203 E-score; for GAGCTTGC, -0.116 E-score.
Consider CATCTCAC, for which the binding signal worked out at 0.133 E-score.
ATCGTGTA: the binding signal is 0.403 E-score.
For AGTCATAG the value was -0.0998 E-score.
For GAGGGAGA the value was -0.137 E-score; for AATCTCCT, -0.205 E-score.
On to AACACAAG, for which the binding signal worked out at 0.0941 E-score.
Take GACCAAAA: the binding signal is -0.121 E-score.
As for AGCGGTAA, the figure is -0.143 E-score; as for ATGTTAGG, -0.136 E-score; as for AGCACCTC, 0.178 E-score.
Consider ACATAAGA, for which the binding signal was -0.197 E-score.
Consider AAGGGGGT, for which the binding signal was 0.293 E-score.
Take ATGCTCCG: the binding signal is -0.153 E-score.
Consider AGCAGTCC, for which the binding signal was -0.306 E-score.
For the sequence TATACAGA, the binding signal worked out at 0.11 E-score.
For CCTTCCAC, the binding signal was -0.0829 E-score.
CAACGGGG: the binding signal is -0.0135 E-score.
For AGGAGTAC the value was 0.115 E-score.
Consider CGTAATAG, for which the binding signal is -0.123 E-score.
Consider TATGAAGA, for which the binding signal was -0.224 E-score.
For TACCAGCA the value was -0.168 E-score.
In the case of ATCCGTGC, the binding signal turned out to be 0.0077 E-score.
CACTAAAG: the binding signal was 0.185 E-score.
As to GAGTACAA, the binding signal was 0.0825 E-score.
For the sequence AAGATATG, the binding signal is -0.165 E-score.
As to AAATGGAA, the binding signal was -0.186 E-score.
As for CCCCGGAC, the figure is 0.152 E-score; as for GAAAAGTA, -0.269 E-score; as for AGTTGACG, -0.225 E-score.
On to GCCGAAGC, for which the binding signal is -0.124 E-score.
As to AGCCTCTC, the binding signal was -0.11 E-score.
As for ACGCAACA, the figure is 0.107 E-score; as for GTGACGAA, -0.194 E-score.
For ACCTAAAT, the binding signal is -0.0316 E-score.
In the case of AAAACCAG, the binding signal was 0.0735 E-score.
For the sequence CAAGTGAC, the binding signal turned out to be 0.148 E-score.
Consider CCGTACAC, for which the binding signal came out at 0.418 E-score.
Consider GGCACGCA, for which the binding signal was -0.156 E-score.
As for ACGTCAAA, the figure is -0.0746 E-score; as for CATACCCG, 0.151 E-score; as for TAGATCTA, -0.119 E-score.
Regarding CAAGCCAG, the binding signal is -0.168 E-score.
Turning to AGGGCAGA, the binding signal is -0.0799 E-score.
With CCTTGCAG, the binding signal was -0.0922 E-score.
As for GTATTGAC, the figure is 0.0898 E-score; as for CTCCATAA, -0.112 E-score; as for ATCGCTGG, -0.0998 E-score.
As for TGTTTGAA, the binding signal was -0.0362 E-score.
On to ATCACGGG, for which the binding signal is -0.0683 E-score.
Consider AAGGACCT, for which the binding signal was 0.0451 E-score.
Take CCAGCGAC: the binding signal was 0.065 E-score.
For GCGCGGCA, the binding signal was determined as 0.0163 E-score.
With ACTCTGCT, the binding signal is -0.127 E-score.
Turning to CCACCGTC, the binding signal was -0.18 E-score.
In the case of CATCGTCC, the binding signal is -0.0897 E-score.
With TGAGGAAA, the binding signal was -0.174 E-score.
As for AGGGAATG, the binding signal is -0.153 E-score.
For CATTTACC the value was 0.0461 E-score.
As for GTTGGCAA, the figure is -0.108 E-score.
AGAGGTAA: the binding signal was -0.134 E-score.
For the sequence CCCTTTCA, the binding signal was -0.0449 E-score.
As for AATGTGTC, the binding signal was 0.136 E-score.
Consider CATTTATA, for which the binding signal worked out at 0.0461 E-score.
As to AATTAAGC, the binding signal was -0.11 E-score.
Regarding ATATAGTC, the binding signal was -0.14 E-score.
As to CCGGTCAG, the binding signal was -0.0905 E-score.
With GATTTAGC, the binding signal is -0.17 E-score.
Turning to GACTCTCA, the binding signal was -0.0932 E-score.
Take TCTATAAA: the binding signal was -0.212 E-score.
Consider AGACCTAG, for which the binding signal is -0.351 E-score.
In the case of GCAATGCA, the binding signal was -0.047 E-score.
Take GATCTTAC: the binding signal was determined as 0.125 E-score.
CACGAGCA: the binding signal was 0.242 E-score.
For CCCTCCCC the value was 0.13 E-score; for CCCAGGCC, 0.00368 E-score; for ACAAAGTA, -0.0604 E-score.
Turning to GAATAAGA, the binding signal was -0.233 E-score.
As to ATAAATGC, the binding signal is -0.152 E-score.
As for ACATATAA, the figure is -0.166 E-score; as for ATGGAGCG, 0.0501 E-score.
For the sequence ACGTTAAA, the binding signal is -0.209 E-score.
Take CCGGATCA: the binding signal was determined as 0.176 E-score.
With GTGGATTA, the binding signal came out at 0.00874 E-score.
TCCCCGAA: the binding signal was -0.0927 E-score.
For the sequence ATCGCGTA, the binding signal was -0.000435 E-score.
On to AACCTTGT, for which the binding signal is -0.12 E-score.
For CTATTCCC, the binding signal is -0.153 E-score.
For GTTCCTGA, the binding signal was -0.276 E-score.
ACGAGCTG: the binding signal was determined as 0.0724 E-score.
ATGCACAG: the binding signal was -0.107 E-score.
As for AGTGTGAG, the binding signal is 0.208 E-score.
As to AAATAGCG, the binding signal is -0.0889 E-score.
Turning to TCCACTCA, the binding signal is -0.149 E-score.
CCGGTAAC: the binding signal was 0.0714 E-score.
Regarding GCATGGTA, the binding signal is 0.0465 E-score.
On to ACATCGGC, for which the binding signal was -0.0802 E-score.
As for ACACATGC, the binding signal was found to be 0.176 E-score.
With CATGGCCG, the binding signal was -0.0611 E-score.
For GATCCCAA, the binding signal is 0.113 E-score.
As for CCAATCGA, the figure is -0.028 E-score; as for ACACTCCG, 0.388 E-score; as for GAGCTGCC, -0.0646 E-score.
Consider CCCCGCTC, for which the binding signal stood at 0.0713 E-score.
For the sequence TCTACGAA, the binding signal was 0.0328 E-score.
For GGGCAGAC the value was -0.0939 E-score; for AGCGACCC, 0.115 E-score.
As to ACCGAGGG, the binding signal is 0.0657 E-score.
Regarding CACTCCGA, the binding signal was found to be 0.251 E-score.
For the sequence CATTGTCG, the binding signal is -0.152 E-score.
Take AGGCACCC: the binding signal is 0.0742 E-score.
On to GTGCTCAA, for which the binding signal worked out at 0.259 E-score.
Consider ACCCAAAG, for which the binding signal is -0.0644 E-score.
Take AACGCCAC: the binding signal is 0.14 E-score.
As for ATCACCGA, the figure is 0.000485 E-score; as for CGAGACCA, -0.159 E-score.
Regarding GAAAGTCA, the binding signal was -0.0544 E-score.
GGGCCAAA: the binding signal is -0.119 E-score.
For GAAATAGA the value was -0.171 E-score; for GTCTTAGA, -0.0692 E-score.
With GCATCCTA, the binding signal was -0.199 E-score.
With AGCAAGGC, the binding signal is -0.0663 E-score.
For CACAGGCA the value was 0.0268 E-score; for ACATCCAA, -0.126 E-score; for GGACCGAC, -0.135 E-score.
As for AGTCCCCC, the figure is -0.221 E-score; as for ATTCCGTC, -0.183 E-score.
Regarding CTCCTTCA, the binding signal is -0.0998 E-score.
For ATTTGGGG, the binding signal was -0.0268 E-score.
Consider AGTCCAGC, for which the binding signal was -0.158 E-score.
As to GTTAACCA, the binding signal was -0.000155 E-score.
Turning to CATAGCAA, the binding signal was -0.221 E-score.
On to CTACCGCA, for which the binding signal is -0.0614 E-score.
Consider AGCTTTAG, for which the binding signal was -0.205 E-score.
As for GCCCGGCA, the binding signal is -0.195 E-score.
For the sequence TCCTCCCA, the binding signal is -0.158 E-score.
Turning to ACAGTGTA, the binding signal stood at 0.381 E-score.
GCACTCTA: the binding signal was found to be 0.00896 E-score.
Consider GCCACACC, for which the binding signal was found to be 0.367 E-score.
In the case of ACGATATA, the binding signal came out at 0.0138 E-score.
As for CGACACGC, the figure is 0.424 E-score; as for GCGTCACC, 0.127 E-score.
For the sequence AGAGGAGA, the binding signal is -0.123 E-score.
For ACACGTAA, the binding signal worked out at 0.323 E-score.
As for GTTGGCGA, the figure is -0.104 E-score.
In the case of CTATAATC, the binding signal was -0.0899 E-score.
Consider ATCCACGG, for which the binding signal is -0.0802 E-score.
CTCGAACC: the binding signal was -0.0671 E-score.
Consider CGCTTTCA, for which the binding signal is -0.0918 E-score.
As for GCGGCTCC, the figure is 0.00768 E-score; as for CAGCATAC, -0.234 E-score; as for GCCTAGGC, -0.2 E-score.
As for AAGCCTCT, the figure is -0.12 E-score; as for AAACGGCT, -0.198 E-score.
As for AGCAGTAT, the binding signal was -0.129 E-score.
As for AAGGAGAC, the binding signal is -0.106 E-score.
For the sequence GCCGGTAA, the binding signal was -0.033 E-score.
CTCGCGCA: the binding signal was -0.0956 E-score.
Regarding ATGTGATG, the binding signal was 0.0182 E-score.
